# According to the supplement of paper PMC3334620:
# Over roughly 33,000 sequences, “E-score (-0.5 to 0.5)” has its median near -0.012; the highest 2% begin near 0.27. The list shows a part of the results.
# Biological target: T1, Vhr1 (UniProt P40522)
# T1 sequence: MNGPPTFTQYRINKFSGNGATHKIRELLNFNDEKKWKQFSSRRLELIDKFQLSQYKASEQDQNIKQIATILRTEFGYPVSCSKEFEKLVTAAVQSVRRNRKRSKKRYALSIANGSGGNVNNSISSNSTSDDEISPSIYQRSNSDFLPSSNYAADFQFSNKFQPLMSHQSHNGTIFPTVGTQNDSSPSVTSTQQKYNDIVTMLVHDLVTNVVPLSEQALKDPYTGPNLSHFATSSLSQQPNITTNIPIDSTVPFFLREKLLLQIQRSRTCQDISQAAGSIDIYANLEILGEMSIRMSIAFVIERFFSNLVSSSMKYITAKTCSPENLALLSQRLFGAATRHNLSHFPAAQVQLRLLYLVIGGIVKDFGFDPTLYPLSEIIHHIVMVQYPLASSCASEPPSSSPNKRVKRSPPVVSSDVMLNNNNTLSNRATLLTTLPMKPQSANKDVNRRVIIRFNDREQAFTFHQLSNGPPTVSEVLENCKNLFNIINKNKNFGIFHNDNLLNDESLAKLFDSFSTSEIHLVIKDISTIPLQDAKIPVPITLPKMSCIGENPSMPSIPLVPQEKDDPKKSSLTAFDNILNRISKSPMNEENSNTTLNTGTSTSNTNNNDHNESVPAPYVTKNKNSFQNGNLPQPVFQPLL
# Assay: PBM E-score (8-mer binding enrichment) (E-score (-0.5 to 0.5)); higher = stronger / more preferred TF binding; most listed sequences are background and not binding sites
# Details: protein concentration: 200 nM; construct: GST-full length
# Experimental: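 Universal 'all 10-mer' protein binding microarrays (Agilent AMADID 015681) probed with GST-tagged S. cerevisiae TFs (full-length or DBD) made by in vitro transcription/translation (PURExpress), about 100-200 nM. Bound TF was detected with fluorescent anti-GST. Each ungapped 8-mer (which stands for itself and its reverse complement) is scored by the PBM enrichment score (E-score), a modified Wilcoxon-Mann-Whitney statistic from -0.5 to +0.5, computed with the Universal PBM Analysis Suite. Scale: above 0.35 generally sequence-specific binding.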
row,Sequence,PBM E-score
1,CGTCGTGC,0.0934
2,AATGTAAA,-0.0495
3,ACTAGGGG,0.035
4,TGCCTACA,-0.113
5,AGAATGCA,0.106
6,CGGCATGC,0.182
7,GTTAGCTA,0.0588
8,CCGGAATA,-0.0911
9,GTTAAGCA,-0.0747
10,GCAGACAC,0.0989
11,ATCAAATG,0.0659
12,CCCCTTGA,0.0801
13,TAGGTTCA,0.0506
14,AGCTAGAT,-0.0103
15,ATAGGAGA,-0.00333
16,GGCCGTAA,-0.155
17,ACTAATCG,0.251
18,CGCGCTAG,0.0638
19,GAGCACGA,0.129
20,GATGATCA,0.285
21,GCCATACA,0.124
22,ATCCACAC,0.119
23,TACTTCCA,-0.106
24,AAGTGTCG,0.0415
25,CGTCGGTC,0.146

row,Sequence,PBM E-score
1,AGAACGGG,-0.148
2,CTGAAAAA,-0.255
3,CCTTATTC,-0.283
4,ACAACGTA,-0.0839
5,ACACCGCC,0.205
6,GATCACAC,0.24
7,GCTGTCAC,-0.0698
8,CGGTTCCA,-0.0205
9,AGGGTTTC,-0.223
10,CACTCTAG,-0.107
11,CCCGGAGG,0.0264
12,CTATCTAA,-0.192
13,GCAGGCAA,0.0572
14,AGTCCAGG,-0.117
15,AACAAGAT,0.04
16,CAACCGCG,0.3
17,CGATGCAC,-0.176
18,AAATCAAT,0.0377
19,CGGCCCCG,-0.0177
20,AGGGTTAC,-0.0662
21,ACGGCCAG,-0.00917
22,AAAGTCAA,0.0394
23,AGTTAAAC,-0.0513
24,AACCATGC,0.234
25,ACTTAGGC,-0.172

row,Sequence,PBM E-score
1,ACCCCGTC,0.183
2,CTGCCAAC,-0.0991
3,GGCCCAAC,-0.0071
4,GCTCTGAC,-0.0622
5,ACCACATG,0.262
6,CCGGAACA,-0.0556
7,TAAATGAA,-0.0959
8,CACCCTAA,0.00036
9,GCGCTCAA,-0.205
10,ATCACTGC,0.289
11,CGCCTCCA,-0.0111
12,GAACGATC,0.0106
13,TCACTGGA,0.0394
14,CTACCCGC,0.157
15,CCTCCCGA,-0.15
16,GTCTGTAA,-0.0248
17,GGATGGAC,-0.0593
18,CATTCTGA,-0.0439
19,ACAGTTCA,0.0273
20,GCGGACGC,0.0124
21,CCCATTGC,0.163
22,ACAGGTAC,0.0321
23,TATCAGGA,-0.0274
24,CAAACATC,-0.0792
25,AAATAGTT,-0.115

row,Sequence,PBM E-score
1,AACGCGCC,-0.0794
2,GAAATTCC,-0.298
3,ATGGTAAG,-0.0491
4,ACCTACAA,-0.0961
5,CTCGACTC,0.19
6,GAGCTTAA,-0.111
7,CTTCCACC,-0.113
8,CCGGTACG,-0.118
9,AGGAGTAA,0.0927
10,GCACTCGA,0.00258
11,CCTTGGCG,-0.0852
12,CGAATAGA,-0.0883
13,ACTTATTA,0.135
14,ACCAGTTC,-0.0486
15,CATAAGCG,-0.164
16,ATCTAGTA,0.0526
17,GTCCGTAA,-0.134
18,CCGGAGAA,-0.0476
19,CGTGTGAC,0.0881
20,GCCATCCA,0.00671
21,ATCAGGGA,-0.153
22,AAGTTGGC,-0.0804
23,ATGCTATG,0.138
24,GCTGTTCC,-0.178
25,ACTCTAAG,-0.173

row,Sequence,PBM E-score
1,CGATTGCA,0.0006
2,ACTAGTCG,0.184
3,CCCCTTAG,-0.123
4,AACAACCC,-0.0107
5,CTGTCCTA,-0.0746
6,GATTCGTA,0.209
7,CATCGAAG,0.0487
8,AATTCTGG,-0.15
9,ATTCGTGC,0.141
10,ACTCATTC,0.367
11,GTATATTA,0.0991
12,CGCTATCC,-0.0309
13,AGGTCTAC,-0.0342
14,TCTCCAAA,-0.113
15,AAAGGCTT,-0.189
16,AATGTTGA,0.043
17,TGATAGAA,-0.115
18,GATTCTTA,0.00158
19,AAGTGCTG,-0.164
20,ATTTAATG,0.122
21,ATGTAGCC,0.0229
22,ACATTGGA,-0.0768
23,ACGAAGCT,-0.0843
24,AGAGCCGC,0.128
25,CCGCAACA,-0.0255

row,Sequence,PBM E-score
1,CGCATCAG,0.118
2,CCGTTCTA,-0.064
3,CGCGCCAA,-0.0215
4,TGAAGGAA,-0.212
5,ACGGGTCG,0.157
6,ATATCACC,0.125
7,GCTGATCA,0.0474
8,TATTGAAA,0.0665
9,ATTCTTGA,-0.0575
10,ATTGCCCG,-0.0258
11,AGCGCTGA,-0.152
12,CATGGCAG,0.159
13,ATCAACCA,0.162
14,CCGAGCCG,0.109
15,CCGGTTAC,0.0565
16,ATGATCAA,0.145
17,GGTCCTAC,-0.137
18,ATTCGTCC,0.156
19,ATATACGA,-0.191
20,CGCAGCGC,-0.149
21,ATAGCGAC,-0.0153
22,ACATGTCT,0.111
23,AAAGTGAG,0.0765
24,AGAGGGCA,-0.208
25,GCGCCCAC,-0.0258

row,Sequence,PBM E-score
1,ACGAAACT,-0.0732
2,CTAGTGGA,-0.162
3,AATGCTAC,0.072
4,CGCATTCA,0.0842
5,GTCTCTTA,-0.233
6,AAGCAACG,-0.00241
7,GAACCGCA,0.194
8,AACCTAGA,-0.0515
9,ATGACTGA,0.368
10,GCGCGGCC,-0.157
11,ACGCCCTG,0.0701
12,CATGCGCA,0.159
13,AATGGGCT,0.0797
14,TGGGGTAA,0.0316
15,CCGACGCA,-0.137
16,AACCGGAA,0.00223
17,ACCCAATA,-0.0437
18,AGCGCTGC,-0.213
19,CAACACAA,-0.0309
20,ATAACATG,0.0371
21,GATAATAC,0.144
22,ATACATAT,0.367
